Assay results taken from PubChem BioAssay AID1457 (National Center for Advancing Translational Sciences (NCATS), 2008).
Hit rate of the full screen: of about 210,000 compounds, about 730 (0.35%) were called active. Inconclusive means that the source gave no clear call. Such entries were picked first, then a sample of the others. Calls follow the shape of the dose curve; as a rule, active = well fitted inhibition curve with a large enough effect; inconclusive = small, poorly fitted or top-dose-only effect; inactive = no such curve, though single readings can be large or run the other way. Potencies of inconclusive entries are doubtful fits and often do not repeat.

experiment: qHTS Assay for Identifying the Cell-Membrane Permeable IMPase Inhibitors: Potentiation with Lithium; conditions: CHO-M1 cells, IP1 TR-FRET (IP-One), carbachol + lithium; series mostly up to 59.4 µM; activity, negative = IMPase inhibition: at the top concentration; also: nearly all actives have a fitted effect of over 50% in size;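 as to activity, negative = IMPase inhibition: plate controls were basal vehicle for no effect and high inhibitor control for full effect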
In short: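 Test compounds were applied to CHO-M1 cells previously cultured for 16–30 h at 2000 per well. A small lithium amount accompanied them; after 30 min at 37C, IP1 was quantified by TR-FRET.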
Potency is read from the fitted curve at half-maximal effect.

| Structure (SMILES) | Potency | activity, negative = IMPase inhibition |
| --- | --- | --- |
| COc1ccc(-c2cc(=O)c3cc(F)ccc3[nH]2)cc1 | inconclusive: 44.7 µM [inhibitor, single point] | – |
| COC(=O)C1CCN(C(=O)CSc2nc3ccc(OC)cc3[nH]2)CC1 | inconclusive: 0.501 µM [inhibitor, full curve, poor fit] | – |
| O=C(COc1ccc2oc(-c3ccccc3)cc(=O)c2c1)Nc1ccccc1 | inconclusive: 12.6 µM [inhibitor, single point] | – |
| O=C(Nc1cc(-c2nc3ccccc3s2)ccc1Cl)c1ccc2c(c1)OCO2 | inconclusive: 28.2 µM [inhibitor, single point] | – |
| CCOC(=O)c1c(C)nc2sc3c(=O)n(-c4ccc(OC)cc4)cnc3c2c1-c1ccc(OC)cc1 | inconclusive: 28.2 µM [inhibitor, single point] | – |
| N#Cc1nc(-c2cccs2)oc1NCc1ccccc1Cl | inconclusive: 11.2 µM [inhibitor, single point] | – |
| COc1ccc(OC)c(C2C(C(=O)c3cc4ccccc4o3)=C(O)C(=O)N2c2cc(C)on2)c1 (stereo not drawn) | active: 11.2 µM | – |
| CC(C)(C)c1nc(SCC(=O)N2CC(=O)Nc3ccccc32)c2ccccc2n1 | inconclusive: 10 µM [inhibitor, single point] | – |
| C=CCOc1c2ccc(C(=O)NCc3ccc(OC)cc3)cc2nn1C | inconclusive: 8.91 µM [inhibitor, partial curve] | – |
| Cc1cc2cc(CNC(=O)NC3CCCCC3)ccc2n1C | inconclusive: 28.2 µM [inhibitor, single point] | – |
| O=C(c1ccco1)N1CCC2(CC1)CN(Cc1cc(C(F)(F)F)cc(C(F)(F)F)c1)C2 | inconclusive: 28.2 µM [inhibitor, single point] | – |
| CCN1/C(=C/c2ccc3cc(C)ccc3[n+]2CC)Sc2cc(C)ccc21 | inconclusive: 28.2 µM [inhibitor, single point] | – |
| COc1ccc(C2C(C(C)=O)=C(O)C(=O)N2c2nc3ccccc3s2)cc1OC (stereo not drawn) | inconclusive: 11.2 µM [inhibitor, partial curve] | – |
| CC1=Nc2ccc(C)cc2/C1=C/c1c(N)n2oc(C)cc2nc1=O | inconclusive: 0.891 µM [inhibitor, partial curve] | – |
| CCOC(=O)C1=C(C)NC(=S)NC1c1ccc(C)s1 (stereo not drawn) | – | inactive: 15.1% |
| O=c1oc2cc(O)ccc2cc1-c1ccc(F)cc1 | inconclusive: 12.6 µM [inhibitor, single point] | – |
| O=C(Nc1nc(=O)c2ccccc2s1)c1ccc(Cl)cc1 | inconclusive: 22.4 µM [inhibitor, single point] | – |
| COc1cc(NC(=S)NC(=O)c2ccc(C)cc2C)ccc1NC(=O)c1cccs1 | inconclusive: 25.1 µM [inhibitor, single point] | – |
